Measurements: PubChem BioAssay (NCATS)
Where “and” joins values, the source holds several entries; their conditions need not be identical. Equal values may be shown once. The inconclusive results got no clear call from the source; some entries with a clear call stand among them for comparison. A potency beside an inconclusive call is a rough fit, not a confirmed value. Calls of active or inactive are those of the source. Calls come from the whole dose curve; as a rule, active = well fitted cell-killing curve with a large enough effect; inconclusive = small, poorly fitted or top-dose-only effect; inactive = no such curve, though single readings can be large or run the other way.

test: qHTS of pediatric cancer cell lines to identify multiple opportunities for drug repurposing: Primary screen for A673 cells (AID 1347092); conditions: A673 Ewing sarcoma viability, CellTiter-Glo ATP luminescence, 48 h; series mostly up to 46 µM; note: nearly all actives have a fitted effect of over 45% in size
Method in brief: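 A673 cells (500-1,000 cells/well) were treated 48 hours at 37 degrees C with compounds at 11-point (0.78 nM to 46 µM) or 8-point (0.59 nM to 46 µM) dilutions. Viability read by CellTiter-Glo luminescence; concentration-response curves fitted.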
Potency is the fitted concentration of half-maximal effect; tags give direction and shape of the fitted curve.

Row | Structure (SMILES) | Potency
1 | CN1CCC(Nc2ncc3ncnc(Nc4ccc(F)c(Cl)c4)c3n2)CC1 | active: 21.1 µM
2 | O=C(Nc1ccc(Oc2ccnc3[nH]ccc23)c(F)c1)c1cccn(-c2ccc(F)cc2)c1=O | inconclusive: 18.7 µM [cytotoxic, partial curve]
3 | C[C@]12C=CC(=O)N[C@@H]1CC[C@H]1[C@H]3CC[C@@H](C(=O)Nc4cc(C(F)(F)F)ccc4C(F)(F)F)[C@@]3(C)CC[C@@H]12 | inconclusive: 11.8 µM [cytotoxic, partial curve]
4 | Cc1ccc(O)c2ncccc12 | inconclusive: 26.6 µM [cytotoxic, single point]
5 | O=C1c2ccccc2C(=O)C1c1ccccc1 | inactive
6 | COc1cccc2c1C(=O)c1c(O)c3c(c(O)c1C2=O)C[C@@](O)(C(=O)CO)C[C@H]3O[C@H]1C[C@H](N)[C@H](O)[C@H](C)O1 | active: 0.235 µM
7 | CN1CC[C@@H](c2c(O)cc(O)c3c(=O)cc(-c4ccccc4Cl)oc23)[C@@H](O)C1 | active: 0.0935 µM
8 | CO[C@@H]1[C@@H](O)[C@H](O)[C@@H](n2c3c(Cl)cccc3c3c4c(c5c6cccc(Cl)c6[nH]c5c32)C(=O)NC4=O)O[C@@H]1CO | active: 0.235 µM
9 | NC[C@H](O)c1ccc(O)c(O)c1 | inconclusive: 33.5 µM [cytotoxic, single point] and inconclusive: 23.5 µM [cytotoxic, partial curve, poor fit]
10 | CCN1CCN(Cc2ccc(-c3cc4c(N[C@H](C)c5ccccc5)ncnc4[nH]3)cc2)CC1 | active: 0.001 µM
11 | CN1CCN(CCCN2c3ccccc3Sc3ccc(S(=O)(=O)N(C)C)cc32)CC1 | inconclusive: 26.6 µM [cytotoxic, single point]
12 | CC(C(C)N1CC(=O)NC(=O)C1)N1CC(=O)NC(=O)C1 (stereo not given) | inconclusive: 2.96 µM [cytotoxic, full curve]
13 | OCc1ccc(-c2nn(Cc3ccccc3)c3ccccc23)o1 | inconclusive: 2.35 µM [cytotoxic, full curve]
14 | Clc1ccc2c(c1)C(N1CCNCC1)=Nc1ccccc1O2 | inactive
15 | NC(=O)c1ncn([C@@H]2O[C@H](CO)[C@@H](O)[C@H]2O)c1O | inactive
